Literature values, collected in paper PMC8506653 (Clinical cancer research : an official journal of the …, 2021).

Tested on: patients with first relapse of FLT3-mutated AML
Conditions: cited from earlier work

Question: For C[C@]12O[C@H](C[C@]1(O)CO)n1c3ccccc3c3c4c(c5c6ccccc6n2c5c31)CNC4=O [lestaurtinib], which “benefit of adding lestaurtinib to intensive salvage chemotherapy” value is on record?
Answer: no benefit
